The campaign covered roughly 350,000 compounds. About 9,900 (2.8%) were called active. The shares of active, inactive and inconclusive entries below differ from those in the screen. Calls follow the shape of the dose curve; as a rule, active = well fitted activation curve with a large enough effect; inconclusive = small, poorly fitted or top-dose-only effect; inactive = no such curve, though single readings can be large or run the other way. No potency is given beside an inconclusive call; the fits are too rough.
experiment: A quantitative high throughput screen for small molecules that induce DNA re-replication in MCF 10a normal breast cells.; also: nearly all actives have a fitted effect of over 50% in size; as to activity, positive = re-replication: % of control where 0% means no effect; conditions: MCF 10A DNA re-replication, Hoechst nuclear intensity, 48 h; activity, positive = re-replication: at 46.1 µM (top of the series)
Potency is read from the fitted curve at half-maximal effect; tags tell the direction and shape of the fitted curve.

| Structure (SMILES) | activity, positive = re-replication | Potency |
| --- | --- | --- |
| COC(=O)[C@@H](NC(=O)Nc1cccc(Br)c1)C(C)C | inactive: 3.72% |  |
| CCc1ccc(S(=O)(=O)Nc2ccc(-c3nc4cccnc4s3)cc2)s1 |  | inconclusive [activator, single point] |
| Cc1ccccc1OCCCN1C(=O)C(=O)c2cccc(C)c21 |  | inconclusive [activator, partial curve, poor fit] |
| Cc1cc(C)nc(NN2C(=O)C=CC2=O)n1 |  | inconclusive [activator, single point] |
| O=C1Oc2ccccc2C(=O)C1C(CC(O)c1ccc(-c2ccc(Br)cc2)cc1)c1ccccc1 (stereo not drawn) |  | active: 29.9 µM |
| O=C(COC(=O)c1ccco1)Nc1nnc(-c2ccccc2)o1 |  | inconclusive [activator, single point] |
| COC(=O)C1CCCN1C(C(=O)NC1CCCCC1)c1ccc(Cl)cc1 (stereo not drawn) |  | inconclusive [activator, single point] |
| Cc1ccc(C)c(-n2c(=O)c(C#N)cc3c(=O)n4ccccc4nc32)c1 |  | inconclusive [activator, partial curve, poor fit] |
| COc1cccc(C2C3CN(C)CC=C3C(C#N)=C(N)C2(C#N)C#N)c1OC (stereo not drawn) | inactive: 2.69% |  |
| C=CCN1C(=O)N/C(=C/c2ccc(C)o2)C1=O |  | inconclusive [activator, single point] |
| NC(N)=NCCCS(=O)(=O)Nc1ccc(Nc2c3ccccc3nc3cc([N+](=O)[O-])ccc23)cc1 | inactive: 2.96% |  |
| Cn1cc(S(=O)(=O)N2CCNCC2)cc1C(N)=O | inactive: -1.88% |  |
| COc1cccc(/C=N/NC(=O)c2ccc(N3CCCC3=O)cc2)c1 |  | active: 13 µM |
| C(=C\c1ccc2ccccc2n1)/c1ccccc1 | inactive: 12.1% |  |
| COc1ccc(-c2nc(CN3CCN(c4ncccn4)CC3)c(C)o2)cc1C |  | inconclusive [activator, single point] |
| N#CCC(=O)Nc1sc2c(c1C(N)=O)CCCC2 |  | active: 23.1 µM |
| Cc1ccc(C(=O)NCCNc2nc3cc(C)c(C)cc3cc2C)cc1 |  | active: 8.2 µM |
| Cc1ccc(CNC(=O)CSc2ncc(C(=O)Nc3ccccc3)c(=O)n2C)cc1 | inactive: 2.95% |  |
| CC[C@]12c3[nH]c4ccc(OC)cc4c3CCN1C(=O)C(CC(=O)NCCN1CCOCC1)C[C@@H]2C(=O)N1CCN(C(=O)C2CC2)CC1 (stereo partly drawn) | inactive: 1.05% |  |
| C=CCOc1c(/C=N\NC(N)=O)cccc1OC | inactive: 12% |  |
| O=S(=O)(c1cc(F)ccc1F)N1CCN(C2CCCCC2)CC1 |  | inconclusive [activator, single point] |
| COc1cc(OC)c(NC(=O)Cn2cnc3sc(C)c(S(=O)(=O)N4CCOCC4)c3c2=O)cc1Cl |  | inconclusive [activator, single point] |
| OC(CNCCC(c1ccccc1)c1ccccc1)COc1ccccc1 (stereo not drawn) |  | inconclusive [activator, single point] |
| Nc1nc(CN2CCN(c3ccccn3)CC2)nc(Nc2ccc(Cl)cc2)n1 | inactive: 18% |  |

| Structure (SMILES) | activity, positive = re-replication | Potency |
| --- | --- | --- |
| Cc1ccc(C(C)C)c(OCC(O)CN2CCc3ccccc3C2)c1 (stereo not drawn) |  | inconclusive [activator, single point] |
| Cc1ccc(-c2nn(-c3ccccc3)cc2NC(=O)CCl)cc1 |  | inconclusive [activator, single point] |
| CCOC(=O)c1cnc(SCc2cccc3ccccc23)nc1N | inactive: 14.8% |  |
| COc1ccc(OC)c(Nc2nc3ccccc3n3cnnc23)c1 |  | inconclusive [activator, partial curve, poor fit] |
| Nc1nc(-c2cc3c(cc2Cl)OCCO3)cs1 |  | inconclusive [activator, single point] |
| CN1C2CCC1/C(=C\c1ccccc1F)C(=O)/C2=C/c1ccccc1F |  | inconclusive [activator, single point] |
| COCCNC(=S)N(CCc1c(C)[nH]c2ccc(Cl)cc12)Cc1cccs1 |  | inconclusive [activator, single point] |
| N=c1c2c(-c3ccccc3)c(-c3ccccc3)n(Cc3ccco3)c2ncn1CCO |  | active: 10.3 µM |
| COc1ccccc1CN1CCN(Cc2nc(-c3ccc(C)cc3)oc2C)CC1 |  | inconclusive [activator, partial curve, poor fit] |
| Cc1ccc(C)c(N2CCN(CCCNC(=O)Cn3cccc3C(=O)c3ccccc3)CC2)c1 | inactive: 1.89% |  |
| COc1cc(C2C(C#N)=C(N)Oc3cc(N)ccc32)cc(OC)c1OC (stereo not drawn) |  | active: 1.16 µM |
| Cc1coc2c1C(=O)C(=O)c1c-2ccc2c(C)cccc12 |  | inconclusive [activator, partial curve, poor fit] |
| COc1cc(/C=N/NC(=O)CNC(=O)c2ccncc2)ccc1O | inactive: -0.0832% |  |
| CC1=CC(=C(C#N)C#N)C=C(C)N1CCC(C)C |  | inconclusive [activator, partial curve, poor fit] |
| C[C@@]12CCC=C[C@H]1[C@H](c1ccccc1Br)N(Cc1ccccc1)C2=O |  | inconclusive [activator, single point] |
| CC(Oc1ccc2c(-c3ccccc3)cc(=O)oc2c1)C(=O)NCCCn1ccnc1 (stereo not drawn) |  | inconclusive [activator, partial curve] |
| CCN1C(=O)/C(=C\c2cn(CCC#N)nc2-c2ccc(F)cc2)SC1=S | inactive: -2.49% |  |
| CCCn1c(N)c(N(CCOC)C(=O)c2ccc(-c3ccc(Cl)cc3)o2)c(=O)[nH]c1=O | inactive: 5.1% |  |
| COc1ccc2nc(Nc3nc(-c4cc5ccccc5oc4=O)cs3)sc2c1 |  | active: 5.8 µM |
| Cn1nnnc1SCC(=O)c1ccc(Br)s1 | inactive: 0% |  |
| c1ccc2c(c1)OCC(c1csc3ncnc(N4CCCCC4)c13)O2 (stereo not drawn) |  | inconclusive [activator, single point] |
| CCCn1c(SCC(=O)Nc2ccc(C)c(S(=O)(=O)N3CCOCC3)c2)n[nH]c1=O |  | inconclusive [activator, partial curve, poor fit] |
| c1cc(-c2ccncc2)ccn1 | inactive: -6.23% |  |
| CC(C)Oc1cc(O)c2c(=O)c(-c3ccc(O)cc3)coc2c1 |  | inconclusive [activator, partial curve, poor fit] |
